Assay results published in PubChem BioAssay (NCI).
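Growth conditions: 96-well plates. Treatment: test compound, 48 hours, 5 concentrations. Analysis: linear interpolation between bracketing concentrations; unreached endpoints set to highest concentration. GI50 marks 50% less growth. The concentration for full growth arrest is given as TGI.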

These compounds were tested on NCI-H322M lung (assay: growth of human tumour cells (NCI), 48 h).
`CC(C)CCC1(O)O[C@H]2C[C@H]3[C@@H]4CCC5CC(=O)C=C[C@]5(C)[C@H]4CC[C@]3(C)[C@H]2[C@@H]1C` (stereo partly drawn) was tested, and the TGI was 28.4 µM.
`COc1cc(OC)c2c(=O)c(O)c(-c3ccc(OC)c(OC)c3)oc2c1` showed a TGI of over 100 µM.
For `N#Cc1[nH]c(=O)n(-c2ccc(Cl)cc2)c1N`, the TGI was over 10 µM.
With `CCSC1=N/C(=C\c2ccccc2O)C(Nc2ccc(C)cc2)=N1` the TGI was over 100 µM.
`COc1cc(CSc2nc3ccc(C)cc3c(=O)n2Cc2ccccc2)cc(OC)c1OC` showed a GI50 of 7.26 µM and a TGI of over 100 µM.
Compound `CCCCCCCCCCCCCCCC(=O)OCC(O)C1OC(=O)C(O)=C1O` (stereo not drawn) has a TGI of 77.6 µM.
For `c1ccc(N=C2SC(=NNc3ccccc3)SC2=Nc2ccccc2)cc1`, the TGI was over 100 µM.
`CC(=O)OC1CCn2nnc(COC(=O)NC(C)C)c21` (stereo not drawn) showed a TGI of over 100 µM.
`c1ccc(C2SCC3=Nc4ccccc4CN32)cc1` (stereo not drawn) was tested, and the TGI was over 100 µM.
`C=CC1CC12C(=O)C1OC2(C)C2C(=O)c3c(ccc4c3ccc3ccccc34)C(=O)C12` (stereo not drawn) gave a GI50 of 71.3 µM and a TGI of over 100 µM.
For `COC(=O)CCC(=O)c1c(C)[nH]c(/C=C2\N=C(c3ccc[nH]3)C=C2OC)c1C`, the GI50 was 11.6 µM and the TGI was 24.2 µM.
Compound `NNC(=O)CNC(=O)CSc1nnc(COc2ccc(Cl)cc2)n1-c1ccccc1` has a TGI of over 100 µM.
In the case of `O=C1CCCC/C1=C/C=C/c1ccccc1`, the TGI is reported as over 100 µM.
With `CCOC(=O)CC1(O)C=CC(=O)C=C1` the GI50 was 3.23 µg/mL and the TGI was 6.31 µg/mL.
For `Cc1ccc2c(c1)NC(=O)CCSSCCC(=O)N2`, the TGI was over 100 µM.
With `CC(=O)/C=C/C1=C(c2cc3ccccc3s2)c2ccccc2CC1` the GI50 was 54.4 µM and the TGI was over 100 µM.
`CC(=O)OC1COC(S[As](C)C)C(OC(C)=O)C1OC(C)=O` (stereo not drawn) gave a GI50 of 6.57 µM and a TGI of 19.6 µM.
`CCN(CC)CCOc1ccc(/C=C2\CC3C4CCC5=CC(=O)CC[C@]5(C)C4CC[C@]3(C)C2=O)cc1OC` (stereo partly drawn) gave a GI50 of 3.18 µM and a TGI of 6.6 µM.
Compound `Cc1ccc(/C=C/C(=O)c2c([O-])on[n+]2-c2ccccc2)cc1` has a TGI of 19.4 µM.
For `NNC(=O)c1c(Cl)c(Cl)c(Cl)c(Cl)c1-c1nc2ccccc2[nH]1`, the TGI was 88.2 µM.
`O=P(O)(O)C(CSc1ccccc1)P(=O)(O)O` was tested, and the TGI was over 100 µM.
Work on `COc1ccc(/C=C2\CSC/C(=C\c3ccc(OC)c(OC)c3OC)C2=O)c(OC)c1OC` yielded a TGI of over 100 µM.
Work on `CC(=O)OCC1OC(n2c(N)c(C#N)c(-c3ccccc3)c(C#N)c2=S)C(OC(C)=O)C(OC(C)=O)C1OC(C)=O` (stereo not drawn) yielded a TGI of over 100 µM.
For `COC(=O)c1ccccc1NC(=O)/C(=N\NC(C)(C)C)C(C#N)c1nc(-c2ccc([N+](=O)[O-])cc2)cs1` (stereo not drawn), the TGI was over 100 µM.
`O=C(O)CSc1cc(-c2ccccc2)nc2ccccc12` gave a TGI of over 100 µM.
`CN1CCN(c2ccc3nc(-c4cc(C(C)(C)C)c(O)c(C(C)(C)C)c4)[nH]c3c2)CC1` showed a GI50 of 2.42 µM and a TGI of 5.93 µM.
In the case of `COc1cc(OC)c2c(c1OC)OCC(Cc1ccc(O)cc1)C2=O` (stereo not drawn), the TGI is reported as over 25 µM.
Compound `O=C(Cn1nc(Br)c(Br)c1Br)c1ccccc1` has a TGI of over 100 µM.
For `O=c1[nH]c2ccc(CC(=S)N3CCOCC3)cc2s1`, the TGI was over 100 µM.
`N=C(c1ccccc1)N(O)C1CCCCC1` was tested, and the TGI was over 100 µM.
`Cc1ccc(C(=O)C(C)N)cc1` (stereo not drawn) was tested, and the TGI was over 100 µM.
With `Cc1c(C(=O)/C=C/c2ccc(Cl)cc2)[n+](=O)c2ccccc2n1[O-]` the TGI was 27.6 µM.
Work on `CCc1n[nH]c(=O)n1N1C(=O)C2CC=CCC2C1=O` (stereo not drawn) yielded a TGI of over 100 µM.
`Cc1c(-c2cc3n(n2)C(c2cccs2)C(C#N)=C(c2ccccc2)N3)c(=O)n(-c2ccccc2)n1C` (stereo not drawn) was tested, and the TGI was over 100 µM.
`CC(=O)c1ccc(Oc2ccc(/C(C)=N\N=C(N)N)cc2)cc1` showed a TGI of 13.6 µM.
`CC(c1ccc(Br)cc1)C(C(=O)O)C(=O)O` (stereo not drawn) gave a TGI of over 100 µM.
Compound `O=C1c2ccccc2CC12Cc1cc3c(cc1C2=O)CCC3` (stereo not drawn) has a TGI of over 100 µM.
`CC1(O)CC2C(CC1SCCO)C2(C)C` (stereo not drawn) gave a TGI of over 100 µM.
Compound `CCC[CH2][Sn]([CH2]CCC)([O]C(=O)c1cccc(F)c1)[O]C(=O)c1cccc(F)c1` has a GI50 of 0.929 µM and a TGI of 2.18 µM.
`CCCCCCCCCCCC(=O)OCC1OC(n2cc(F)c(=O)[nH]c2=O)C(N)C(OC(=O)CCCCCCCCCCC)C1O` (stereo not drawn) showed a TGI of over 100 µM.
Work on `COC(OC)c1cccc2c1C1(O)CCC3(CC21)OCCCCO3` (stereo not drawn) yielded a TGI of over 100 µM.
In the case of `CC[N+]1(C)CCC(O)(c2ccc(Cl)cc2)C(C(=O)c2ccc(Cl)cc2)C1` (stereo not drawn), the TGI is reported as 57.2 µM.
`O=C(Nc1cc(C(F)(F)F)ccc1F)Nc1n[nH]c2ccccc12` gave a GI50 of over 100 µM and a TGI of over 100 µM.
`O=C1NC2(CCCCC2)N=C2C(Cl)CCCC12Cl` (stereo not drawn) was tested, and the TGI was over 100 µM.
`COc1ccc(C(O)CNC(=O)c2ccccc2)cc1` (stereo not drawn) was tested, and the TGI was over 100 µM.
In the case of `CS(=O)(=O)CCNCc1ccc(-c2ccc3ncnc(Nc4ccc(OCc5cccc(C(F)(F)F)c5)cc4)c3c2)o1`, the GI50 is reported as 8.22 µM and the TGI is reported as 24.4 µM.
`COc1ccc2c(c1)c(C1(c3cn(C)c4ccc(OC)cc34)C(=O)Nc3ccc(F)cc31)cn2C` was tested, and the GI50 was 7.14 µM and the TGI was over 100 µM.
`CCOc1ccc2c(c1)/C(=C(\C(Cl)=C(Cl)Cl)[N+](=O)[O-])N2` showed a TGI of over 100 µM.
`O=C(COc1cccc(/C=C2\COc3ccccc3C2=O)c1)Nc1nccs1` was tested, and the GI50 was 5.02 µM and the TGI was 17.5 µM.
`NC1C/C(=N\O)c2c(I)sc(I)c21` (stereo not drawn) showed a TGI of 31.1 µM.
With `O=C(N/N=C1\CCc2ccccc2C1)N/N=C1\CCc2ccccc2C1` the TGI was over 10 µM.
In the case of `CC(C)(C)[Si](C)(C)OCCCC#CCO`, the TGI is reported as over 100 µM.
`CC(=O)N1CC2Nc3ccccc3C2CC1CO` (stereo not drawn) gave a TGI of over 100 µM.
`COc1cnc2c(c1)C(=O)c1c-2n(CCCn2ccnc2)c(=O)c2cc(Cl)ccc12` gave a GI50 of 0.124 µM and a TGI of over 100 µM.
In the case of `CCC[C@H](N[C@@H]1CCc2cc(F)cc(F)c2C1)C(=O)Nc1cn(C(C)(C)CNCC(C)(C)C)cn1`, the GI50 is reported as 31.8 µM and the TGI is reported as over 100 µM.
With `NC(=O)CCC(NCc1c2ccccc2[n+]([O-])c2ccccc12)C(=O)O` (stereo not drawn) the TGI was over 100 µM.
`OCCN(CCO)c1ccc2c(C(F)(F)F)cc(C(F)(F)F)nc2n1` gave a TGI of over 100 µM.
`Cc1cc(N(CCC#N)CCC#N)ccc1/C(N=Nc1cccc([N+](=O)[O-])c1)=N/NC(=O)c1cc(Cl)ccc1O` was tested, and the TGI was 62 µM.
`O=c1ccccc2cccc(O)c12` gave a TGI of over 100 µM.
Compound `N#Cc1c(-c2ccccc2)/c(=C\O)c(=O)n2c1nc1ccccc12` has a TGI of over 100 µM.
With `O=[N+]([O-])c1ccccc1N=Nc1c(O)[nH]c2ccccc12` the TGI was over 100 µM.
In the case of `N#Cc1ccccc1C#C/C=C\C#Cc1ccc(OCCCNC(=O)c2cc3ccccc3[nH]2)cc1`, the GI50 is reported as 27.5 µM and the TGI is reported as 93.9 µM.
For `O=C1C=C(Nc2ccccc2C(=O)CC(=O)C(=O)Nc2cccc(C(F)(F)F)c2)c2ccccc2C1=O`, the TGI was over 92.3 µM.
For `CC(C)(C)c1ccc([I+]c2ccc(C(C)(C)C)cc2)cc1`, the GI50 was 4.08 µM and the TGI was 15 µM.
Work on `COc1cccc2cc(C(N)=O)c(=N)oc12` yielded a TGI of over 100 µM.
For `Nc1ccc(Nc2nc(F)nc(-c3c4ccccc4c4n3CCS4)n2)cc1`, the TGI was over 100 µM.
In the case of `O=C1OC(c2ccc(O)c(-c3ccccc3)c2)(c2ccc(O)c(-c3ccccc3)c2)c2c(Cl)c(Cl)c(Cl)c(Cl)c21`, the TGI is reported as over 100 µM.
Compound `Cc1cc(NS(=O)(=O)c2ccc(NC(=O)c3cccc4c(N)c5ccccc5nc34)cc2)no1` has a TGI of 43.4 µM.
`CCCCC(=O)N/N=C/c1cc(I)cc(I)c1O` gave a GI50 of 3.49 µM and a TGI of 26.9 µM.
`Brc1ccc([I+]c2ccc(Br)cc2)cc1` showed a GI50 of 2.92 µM and a TGI of 13.8 µM.
`COC(=O)CC1(CNC(=O)OCc2ccccc2)OCCO1` gave a TGI of over 100 µM.
With `COc1cc(-c2[nH]ccc2Cl)oc1C1=C2N=C3C=C2C(C(C)C)C1CCCCCCCC3` (stereo not drawn) the TGI was 5.35 µM.
`O=C(NO)c1coc2ccccc2c1=O` showed a TGI of over 100 µM.
`O=C1/C(=C/c2ccccc2Cl)N=C(c2ccccc2)N1Cc1ccco1` showed a GI50 of 11.6 µM and a TGI of over 100 µM.
`COc1ccc(-c2n[nH]nc2-c2csc3ccccc23)cc1OC` gave a GI50 of 7.79 µM and a TGI of over 100 µM.
`COC(=O)C(CCC1C=CCC1)N=Cc1ccccc1` (stereo not drawn) gave a TGI of over 100 µM.
Work on `Cc1csc2nc(-c3ccc([N+](=O)[O-])cc3)c(/C=N/N=C(N)N)n12` yielded a TGI of 3.5 µM.
